The campaign covered roughly 150,000 compounds. About 540 (0.36%) showed an effect of 50% or more. The list shows a part of the results.

The experiment deals with Plasmodium falciparum. The experiment in a line: Primary screen in NF54 nanoGlo assay, in single point, at 2uM, 72h; a lower Z score goes with more inhibition. Format: functional, Erythrocyte. Particulars: timepoint 72 hour.
In general, % Inhibition refers to the drop in the measured response relative to a control, in per cent. As for `Cc1cnc(NC(=O)Cc2c(C)nn(-c3ccc(Cl)cc3Cl)c2C)s1`, the “% Inhibition” value is -7% and the Z score is 0.97.

Consider `CC(=O)c1c(F)cccc1N1CC[C@H](OCc2ccncc2)C1`, for which the “% Inhibition” value is recorded as -6% and the Z score is given as 0.84.

On to `Cc1cc2ncc(CNCc3ccc(-n4cncn4)nc3)cn2n1`, for which the “% Inhibition” value is -16% and the Z score is listed as 2.3.

For the compound `CC1CCN(C[C@H]2CCCN(C(=O)c3ccoc3)CC2)CC1`, the “% Inhibition” value is reported as -1% and the Z score worked out at 0.13.

As for `Cc1cc(-n2nc(C)nc2-c2ccccc2N(C)C)ccn1`, the “% Inhibition” value is given as -24% and the Z score amounted to 2.47.

For the compound `Cc1nc(C)c(C(=O)NC[C@H]2CCCN(C(=O)c3n[nH]c4c3CCCC4)C2)s1`, the “% Inhibition” value was determined as 0% and the Z score is recorded as 0.02.

For the compound `O=C(NC(=O)c1cccc(C(F)(F)F)c1)OC[C@@H]1CCCN2CCCCC12` (stereo partly drawn), the “% Inhibition” value is -14% and the Z score was 1.86.

`Cc1nc(Cc2c(C)noc2C)n(-c2ccc(F)cc2F)n1`: the “% Inhibition” value worked out at 6% and the Z score is on record as -0.77.

Turning to `CC1CCC(C)(C(=O)N[C@H]2CCOC3(CC(C(=O)O)C3)C2)CC1` (stereo partly drawn), the “% Inhibition” value is -7% and the Z score amounted to 1.33.

As for `COc1ccc(Cl)cc1NC(=O)Cn1c(=O)n(Cc2ccc(C(=O)NCc3ccc4c(c3)OCO4)cc2)c(=O)c2ccccc21`, the “% Inhibition” value was -2% and the Z score is 0.27.

With `COc1c(CNCc2ccnc(-n3ccnc3C)c2)c(C)nn1C`, the “% Inhibition” value was -12% and the Z score is reported as 0.98.

Regarding `COCCNC(=O)NC(=O)CN(C)Cc1ccc(C)o1`, the “% Inhibition” value was 1% and the Z score is -0.06.

Consider `CC(C)(C(=O)Nc1cc2ccc(Br)cn2n1)S(=O)(=O)C1CC1`, for which the “% Inhibition” value is recorded as -2% and the Z score is 0.24.

For `CCC[C@H](NCC(C)C)C(=O)Nc1c(C)cc(C)cc1C`, the “% Inhibition” value is recorded as -17% and the Z score is 2.2.

Regarding `CC(C)CN(CC(C)C)c1ccc(NS(=O)(=O)c2cccs2)cc1C(=O)O`, the “% Inhibition” value was -12% and the Z score stood at 1.52.

In the case of `CC(=O)N1CCN(Cc2ccccc2N[C@@H](C)C2CCC2)CC1`, the “% Inhibition” value is 32% and the Z score was -3.62.

Take `CCCNC(=O)NCc1cc(-c2cccnc2)nn1C`: the “% Inhibition” value is 19% and the Z score was -2.37.

For `CN(C)Cc1ccccc1CN(C)C(=O)c1cccc(-c2ccco2)c1`, the “% Inhibition” value is given as -6% and the Z score stood at 1.13.

In the case of `O=C(Nc1ccccc1)N1CCc2scc[n+]2-c2ccccc21`, the “% Inhibition” value came out at 37% and the Z score is -4.73.

For `Cc1nn(C)c(C)c1S(=O)(=O)N1CCC(N2CCc3sccc3C2)CC1`, the “% Inhibition” value is recorded as 11% and the Z score is reported as -1.75.

In the case of `CO[C@H]1[C@H](NC(=O)Cc2ccccc2)c2ccccc2C12CCN(Cc1cccc3nccnc13)CC2`, the “% Inhibition” value is given as -5% and the Z score is 0.65.

With `Cc1cc(N)nc(CNc2ccc(Cl)cc2)n1`, the “% Inhibition” value was -10% and the Z score is 1.38.

As to `O=C(Nc1ccc2c(c1)OCCCO2)c1ccc2ccccc2n1`, the “% Inhibition” value is -15% and the Z score turned out to be 2.07.

With `CN(C)CCN(CCO)C(=O)NCc1cccc(F)c1F`, the “% Inhibition” value came to 6% and the Z score is recorded as -0.89.

Consider `COCCCNC(=O)c1cc(Cl)c[nH]1`, for which the “% Inhibition” value is given as -4% and the Z score is reported as 0.69.

As for `CN1CCC[C@@H]1CNC(=O)c1nnc2ccccc2n1`, the “% Inhibition” value was -2% and the Z score is 0.35.

As to `Cc1ccc(Oc2ccc(N(C)S(=O)(=O)c3ccc(OC(F)(F)F)cc3)cc2)nn1`, the “% Inhibition” value came out at 5% and the Z score is reported as -0.62.

Take `CCN(CCCN1C(=O)NC(C)(C)C1=O)Cc1ccco1`: the “% Inhibition” value was 4% and the Z score was -0.49.

With `Cc1nc(Cn2nccc2-c2ccncc2)cs1`, the “% Inhibition” value is reported as -11% and the Z score was 1.74.

For the compound `CC(=O)Oc1c(-c2ccc(NC(=O)c3ccc(F)cc3)cc2)c(-c2ccc(F)cc2)nn1-c1ccc(F)cc1`, the “% Inhibition” value is recorded as -6% and the Z score was 0.79.

`O=C1NC2(CCN(Cc3cccc(F)c3F)CC2)Nc2ccc(Br)cc21`: the “% Inhibition” value is listed as -12% and the Z score was determined as 2.05.

Take `FC(F)(F)c1cc(N2CC[C@H](CN3CCCC3)C2)ccn1`: the “% Inhibition” value was determined as 4% and the Z score is recorded as -0.77.

On to `Cc1ccc(-n2cccn2)cc1NC(=O)N1CCN(c2ccncc2Cl)CC1`, for which the “% Inhibition” value was -9% and the Z score came to 1.32.

Consider `O=C(c1cc2c(s1)CCCCC2)N1CCN(c2nccs2)CC1`, for which the “% Inhibition” value was -10% and the Z score came to 1.95.

As for `Cc1ccc2c(c1C)NC(=O)C21NC(CCC(N)=O)[C@H]2C(=O)N(Cc3ccc(F)cc3)C(=O)[C@H]21` (stereo partly drawn), the “% Inhibition” value worked out at 0% and the Z score is reported as -0.01.

With `Cc1nc2c(s1)[C@@H](NCc1ccnc(OCC3CC3)c1)CCC2`, the “% Inhibition” value is -16% and the Z score is reported as 1.86.

Turning to `COC(=O)C1CC(Oc2ccc(Cl)cc2)CN1` (stereo not drawn), the “% Inhibition” value stood at 10% and the Z score is -1.19.

For the compound `Cc1cc2c(cc1CNC(=O)c1ccc(F)cc1)OCCCO2`, the “% Inhibition” value was -4% and the Z score turned out to be 0.64.

Regarding `O=C(CCC1CCCC1)NCc1ccc(Cn2ccnc2)cc1`, the “% Inhibition” value is reported as -15% and the Z score was 2.47.

Turning to `Cc1ccc(-c2nc3ccc(Oc4ccc(N)cc4)cc3nc2-c2ccc(C)cc2)cc1`, the “% Inhibition” value was -2% and the Z score is 0.38.

For `O=C(NCCn1ccnc1)NCC1(Cc2ccccc2)CCC1`, the “% Inhibition” value is recorded as 8% and the Z score is listed as -1.

As for `O=C(NCCCO)c1cn2c3c(cccc3c1=O)CCC2`, the “% Inhibition” value is 7% and the Z score is -1.03.

In the case of `CN1C(=O)CCC(c2nc(-c3nccc4ccccc34)no2)C1c1cnn(C)c1` (stereo not drawn), the “% Inhibition” value was 3% and the Z score is reported as -0.4.

`O=C(CN(C[C@H]1CCCO1)C(=O)C1CC=CC1)N1CCCC1`: the “% Inhibition” value was -4% and the Z score stood at 0.41.

`Cc1noc(C)c1S(=O)(=O)NC[C@H](O)c1ccc(-c2ccsc2)cc1`: the “% Inhibition” value was 8% and the Z score was -1.13.

`COCCCN(CC(=O)N(Cc1cccn1Cc1ccc(Br)cc1)C1CCCCC1)C(=O)N(C)C`: the “% Inhibition” value is -13% and the Z score was 2.42.

As to `COC(=O)N(C)CC(=O)Nc1cccc(Cl)c1`, the “% Inhibition” value is on record as -5% and the Z score came to 0.77.

`C[C@H](O)CCN(C)c1ncc(Br)cn1`: the “% Inhibition” value is -21% and the Z score is 2.48.

For the compound `COc1cc(NC(=O)CC#N)cc(OC)c1`, the “% Inhibition” value is listed as -12% and the Z score worked out at 1.36.

Take `CC1(C)CN(S(=O)(=O)NCC(F)(F)F)C[C@]2(C[C@@H]3CC[C@H]2C3)O1`: the “% Inhibition” value stood at 15% and the Z score is -1.7.

`CCCN(CC(C)(C)c1ccccc1)C(=O)CNC1CC1`: the “% Inhibition” value came to 1% and the Z score is -0.24.

For the compound `CCc1ccc(C(=O)N[C@@H](C)c2csc(C)n2)[nH]1`, the “% Inhibition” value turned out to be 19% and the Z score is -3.32.

On to `Cc1noc(C)c1S(=O)(=O)N[C@H]1Cc2ccccc2NC1=O`, for which the “% Inhibition” value is -8% and the Z score came to 1.07.

As for `CCc1noc(-c2cnc3nc(C)ccc3c2Nc2cccc(C)c2)n1`, the “% Inhibition” value is reported as -4% and the Z score came out at 0.45.

Source of the values: ChEMBL document CHEMBL4888484, “Replenishing the malaria drug discovery pipeline: Screening and hit evaluation of the MMV Hit Generation Library 1 (HGL1) against asexual blood stage Plasmodium falciparum ,using a nano luciferase reporter read-out” (2022).
